# Inconclusive means that the source gave no clear call. A potency beside an inconclusive call is a rough fit, not a confirmed value.
# Assays:
# [1] = target: Chromobox protein homolog 1 (Homo sapiens) (UniProt P83916); assay: qHTS Validation Assay for Inhibitors of HP1-beta Chromodomain Interactions with Methylated Histone Tails (AID 488953); conditions: HP1-beta chromodomain / methylated histone peptide binding assay; series mostly up to 114 µM
# How it was run: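 Measured as loss of AlphaScreen luminescence from streptavidin donor and nickel acceptor beads (10 ug/mL final) bridging HP1-beta and biotin-H3(1-18)K9me3, each 50 nM. Compounds met the preassembled complex for 30 min at RT.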
# [2] = Validation screen for small molecules that induce DNA re-replication in SW480 colon adenocarcinoma cells (AID 504364); conditions: DNA re-replication phenotype (high-content imaging); series mostly up to 46.1 µM
# How it was run: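 Cells are treated 48 hr with test compound, stained 40 min with Hoechst at 37 C, and scanned for nuclear fluorescence; compounds inducing re-replication increase nuclei with elevated intensity.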
# Potency is the fitted concentration of half-maximal effect; tags give direction and shape of the fitted curve.
# Chain of UniProt P83916 (P83916 whole entry, looked up): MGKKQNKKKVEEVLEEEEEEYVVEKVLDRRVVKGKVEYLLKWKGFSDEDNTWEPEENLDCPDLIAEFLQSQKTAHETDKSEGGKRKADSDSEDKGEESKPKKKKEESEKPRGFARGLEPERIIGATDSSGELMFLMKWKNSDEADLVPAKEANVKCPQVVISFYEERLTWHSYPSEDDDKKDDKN
structure (smiles),measurement,setting,value
CCOC(=O)N1CCC(=C2c3ccc(Cl)cc3CCc3cccnc32)CC1,Potency,[1],"inconclusive: 50.1 µM [inhibitor, partial curve]"
same,Potency,[2],"inconclusive: 20.6 µM [activator, single point]"

# From PubChem BioAssay (NCATS)
